According to the supplement of paper PMC8728848:
The other results are listed elsewhere or left out.

How the values were obtained:
Experiment in all cases: glycan array binding signal (z-score within array); higher = stronger binding
Settings in all cases: glycan notation: IUPAC condensed, linker removed
Fuc(a1-3)GlcNAc = molecular target: Fuc(a1-3)GlcNAc
Procedure, shortened: (§1)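 The binding signal is a Z-score computed within each array. Data were drawn from 3228 arrays in the Consortium for Functional Glycomics database, restricted to those with a known protein sequence. Scores were averaged over arrays of the same protein sequence at different concentrations or buffers, and over linkers, and negative values can be taken as non-binding.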

[1] = molecular target: Fuc(a1-3)[Gal(b1-4)]Glc6S
Procedure, shortened: as §1

[2] = molecular target: Fuc(a1-3)[Gal(b1-4)]GlcNAc
Procedure, shortened: as §1

[3] = molecular target: Fuc(a1-3)[Gal(b1-4)]GlcNAc(b1-2)Man
Procedure, shortened: as §1

[4] = molecular target: Fuc(a1-3)[Gal(b1-4)]GlcNAc(b1-2)Man(a1-3)[Fuc(a1-3)[Gal(b1-4)]GlcNAc(b1-2)Man(a1-6)]Man(b1-4)GlcNAc(b1-4)GlcNAc
Procedure, shortened: as §1

[5] = molecular target: Fuc(a1-3)[Gal(b1-4)]GlcNAc(b1-2)Man(a1-3)[Fuc(a1-3)[Gal(b1-4)]GlcNAc(b1-2)Man(a1-6)]Man(b1-4)GlcNAc(b1-4)[Fuc(a1-6)]GlcNAc
Procedure, shortened: as §1

[6] = molecular target: Fuc(a1-3)[Gal(b1-4)]GlcNAc(b1-3)Gal(b1-3)[Fuc(a1-4)]GlcNAc
Procedure, shortened: as §1

[7] = molecular target: Fuc(a1-3)[Gal(b1-4)]GlcNAc(b1-3)Gal(b1-4)[Fuc(a1-3)]GlcNAc
Procedure, shortened: as §1

[8] = molecular target: Fuc(a1-3)[Gal(b1-4)]GlcNAc(b1-3)Gal(b1-4)[Fuc(a1-3)]GlcNAc(b1-3)Gal(b1-4)[Fuc(a1-3)]GlcNAc
Procedure, shortened: as §1

[9] = molecular target: Fuc(a1-3)[Gal(b1-4)]GlcNAc(b1-3)GalNAc
Procedure, shortened: as §1

[10] = molecular target: Fuc(a1-3)[Gal(b1-4)]GlcNAc(b1-6)GalNAc
Procedure, shortened: as §1

[11] = molecular target: Fuc(a1-3)[Gal(b1-4)]GlcNAc(b1-6)[Gal(b1-3)GlcNAc(b1-3)]Gal(b1-4)Glc
Procedure, shortened: as §1

[12] = molecular target: Fuc(a1-3)[Gal(b1-4)]GlcNAc6S
Procedure, shortened: as §1

[13] = molecular target: Fuc(a1-3)[Gal3S(b1-4)]Glc
Procedure, shortened: as §1

[14] = molecular target: Fuc(a1-3)[Gal3S(b1-4)]GlcNAc
Procedure, shortened: as §1

[15] = molecular target: Fuc(a1-3)[Gal3S(b1-4)]GlcNAc6S
Procedure, shortened: as §1

[16] = molecular target: Fuc(a1-3)[GalNAc(b1-4)]GlcNAc
Procedure, shortened: as §1

[17] = molecular target: Fuc(a1-3)[GalNAc(b1-4)]GlcNAc6S
Procedure, shortened: as §1

Fuc(a1-4)GlcNAc = molecular target: Fuc(a1-4)GlcNAc
Procedure, shortened: as §1

Fuc(b1-3)GlcNAc = molecular target: Fuc(b1-3)GlcNAc
Procedure, shortened: as §1

Gal(a1-2)Gal = molecular target: Gal(a1-2)Gal
Procedure, shortened: as §1

Gal(a1-3)Gal = molecular target: Gal(a1-3)Gal
Procedure, shortened: as §1

Gal(a1-3)Gal(b1-3)GlcNAc = molecular target: Gal(a1-3)Gal(b1-3)GlcNAc
Procedure, shortened: as §1

[18] = molecular target: Gal(a1-3)Gal(b1-3)GlcNAc(b1-2)Man
Procedure, shortened: as §1

[19] = molecular target: Gal(a1-3)Gal(b1-3)GlcNAc(b1-2)Man(a1-3)[Gal(a1-3)Gal(b1-3)GlcNAc(b1-2)Man(a1-6)]Man(b1-4)GlcNAc(b1-4)GlcNAc
Procedure, shortened: as §1

[20] = molecular target: Gal(a1-3)Gal(b1-3)GlcNAc(b1-3)GalNAc
Procedure, shortened: as §1

[21] = molecular target: Gal(a1-3)Gal(b1-3)GlcNAc(b1-6)GalNAc
Procedure, shortened: as §1

[22] = molecular target: Gal(a1-3)Gal(b1-3)[Fuc(a1-4)]GlcNAc(b1-2)Man(a1-3)[Gal(a1-3)Gal(b1-3)[Fuc(a1-4)]GlcNAc(b1-2)Man(a1-6)]Man(b1-4)GlcNAc(b1-4)GlcNAc
Procedure, shortened: as §1

Gal(a1-3)Gal(b1-4)Glc = molecular target: Gal(a1-3)Gal(b1-4)Glc
Procedure, shortened: as §1

Gal(a1-3)Gal(b1-4)GlcNAc = molecular target: Gal(a1-3)Gal(b1-4)GlcNAc
Procedure, shortened: as §1

[23] = molecular target: Gal(a1-3)Gal(b1-4)GlcNAc(b1-2)Man
Procedure, shortened: as §1

[24] = molecular target: Gal(a1-3)Gal(b1-4)GlcNAc(b1-2)Man(a1-3)[Gal(a1-3)Gal(b1-4)GlcNAc(b1-2)Man(a1-6)]Man(b1-4)GlcNAc(b1-4)GlcNAc
Procedure, shortened: as §1

[25] = molecular target: Gal(a1-3)Gal(b1-4)GlcNAc(b1-3)GalNAc
Procedure, shortened: as §1

[26] = molecular target: Gal(a1-3)Gal(b1-4)GlcNAc(b1-6)GalNAc
Procedure, shortened: as §1

[27] = molecular target: Gal(a1-3)Gal(b1-4)[Fuc(a1-3)]GlcNAc
Procedure, shortened: as §1

[28] = molecular target: Gal(a1-3)Gal(b1-4)[Fuc(a1-3)]GlcNAc(b1-2)Man(a1-3)[Gal(a1-3)Gal(b1-4)[Fuc(a1-3)]GlcNAc(b1-2)Man(a1-6)]Man(b1-4)GlcNAc(b1-4)GlcNAc
Procedure, shortened: as §1

Gal(a1-3)GalNAc = molecular target: Gal(a1-3)GalNAc
Procedure, shortened: as §1

B1: Cohesin-hLangerin (Homo sapiens) (protein)
chain: LDDLDAVRIKVDTVNAKPGDTVRIPVRFSGIPSKGIANCDFVYSYDPNVLEIIEIEPGDIIVDPNPDKSFDTAVYPDRKIIVFLFAEDSGTGAYAITKDGVFATIVAKVKEGAPNGLSVIKFVEVGGFANNDLVEQKTQFFDGGANVGDTTEPATPTTPVTTPTTTDDLDAASYPRFMGTISDVKTNVQLLKGRVDNISTLDSEIKKNSDGMEAAGVQIQMVNESLGYVRSQFLKLKTSVEKANAQIQILTRSWEEVSTLNAQIPELKSDLEKASALNTKIRALQGSLENMSKLLKRQNDILQVVSQGWKYFKGNFYYFSLIPKTWYSAEQFCVSRNSHLTSVTSESEQEFLYKTAGGLIYWIGLTKAGMEGDWSWVDDTPFNKVQSARFWIPGEPNNAGNNEHCGNIKAPSLQAWNDAPCDKTFLFICKRPYVPSEPHHHHHH
- glycan array binding signal (z-score) (Fuc(a1-3)GlcNAc): -0.357
- glycan array binding signal (z-score) [1]: -0.346
- glycan array binding signal (z-score) [2]: -0.181
- glycan array binding signal (z-score) [3]: -0.404
- glycan array binding signal (z-score) [4]: -0.375
- glycan array binding signal (z-score) [5]: -0.411
- glycan array binding signal (z-score) [6]: -0.428
- glycan array binding signal (z-score) [7]: -0.026
- glycan array binding signal (z-score) [8]: -0.424
- glycan array binding signal (z-score) [9]: -0.398
- glycan array binding signal (z-score) [10]: -0.413
- glycan array binding signal (z-score) [11]: -0.424
- glycan array binding signal (z-score) [12]: -0.459
- glycan array binding signal (z-score) [13]: -0.365
- glycan array binding signal (z-score) [14]: -0.259
- glycan array binding signal (z-score) [15]: -0.403
- glycan array binding signal (z-score) [16]: -0.224
- glycan array binding signal (z-score) [17]: -0.405
- glycan array binding signal (z-score) (Fuc(a1-4)GlcNAc): 0.16
- glycan array binding signal (z-score) (Fuc(b1-3)GlcNAc): -0.36
- glycan array binding signal (z-score) (Gal(a1-2)Gal): -0.188
- glycan array binding signal (z-score) (Gal(a1-3)Gal): -0.38
- glycan array binding signal (z-score) (Gal(a1-3)Gal(b1-3)GlcNAc): 1.14
- glycan array binding signal (z-score) [18]: -0.432
- glycan array binding signal (z-score) [19]: -0.295
- glycan array binding signal (z-score) [20]: -0.351
- glycan array binding signal (z-score) [21]: -0.254
- glycan array binding signal (z-score) [22]: 2.81
- glycan array binding signal (z-score) (Gal(a1-3)Gal(b1-4)Glc): -0.319
- glycan array binding signal (z-score) (Gal(a1-3)Gal(b1-4)GlcNAc): -0.414
- glycan array binding signal (z-score) [23]: -0.36
- glycan array binding signal (z-score) [24]: -0.389
- glycan array binding signal (z-score) [25]: -0.348
- glycan array binding signal (z-score) [26]: -0.136
- glycan array binding signal (z-score) [27]: -0.372
- glycan array binding signal (z-score) [28]: 0.41
- glycan array binding signal (z-score) (Gal(a1-3)GalNAc): -0.412
